Each block holds one molecule with its values, some of them ahead of it.
Experiments:
human CD47 = target: T1, human CD47 (Homo sapiens, UniProt Q08722); test: Binding of scFv-Fab-Fc bispecific antibodies to human CD47 expressed on C6 cells
T1 construct: expressed in transfected cells
Excerpt: (§1) Cells expressing hABCB1 or hKT14 in stable cell lines were generated by transfecting rat fibroblast C6 cells. Because 5F9 and anti-ABCB1 antibodies have little affinity respectively to murine KT14 or ABCB1, the C6 cell line was used to measure affinity to the human targets expressed in it. KT14/Fc/KT14 Ab refers to single arm format of 5F9, i.e., one heavy chain and one light only.
(§2) Anti-MDR1 and anti-CD47 bispecific antibodies were generated in a scFv-Fab-Fc format as depicted in FIG. 20. The Fc region of the anti-CD47 arm of the bispecific antibody is depicted as having a “hole” created by amino acid substitution and the Fc region of the anti-MDR-1 arm includes a “knob” created by amino acid substitution. However, the knob and hole mutations may be reversed such that the anti-CD47 arm contains the knob and the anti-MDR1 arm contains the hole. Four bispecific antibodies were generated: • KT14.5F9hu scFv-B1.28.hu13 • KT14.B6H12hu scFv-B1.28.hu13 • KT14.5F9hu scFv-B1.261.hu1 • KT14.B6H12hu scFv-B1.261.hu1

human MDR1 = target: T2, human MDR1 (Homo sapiens, UniProt P08183); test: Binding of scFv-Fab-Fc bispecific antibodies to human MDR1 expressed on C6 cells
T2 construct: expressed in transfected cells
Method: The MDR1 overexpressing HEK 293T cells or C6 cells were generated by transfection with human MDR1 cDNA in a mammalian expression vector, followed by a multistep selection of transfectants for resistance to hygromycin at 0.2 mg/ml or 0.5 mg/ml. A MDR1 high-expressing clone was isolated using a FACS Aria, after incubation with a detecting antibody, MRK16-PE.
as §1, §2

B2: KT14.B6H12hu scFv-B1.28.hu13: anti-MDR1 and anti-CD47 bispecific antibody in scFv-Fab-Fc format (protein)
scFv: EVQLVQSGAEVKKPGASVKVSCKASGFTFSGYGMSWVRQAPGQRLEWVATITSGGTYTYYPDSVKGRFTITRDNSASTLYMELSSLRSEDTAVYYCARSLAGNAMDYWGQGTMVTVSSGGGGSGGGGSGGGGSDIVMTQSPLSLPVTPGEPASISCRASQTISDYLHWYLQKPGQSPQLLIKFASQSISGIPDRFSGSGSGSDFTLKISRVEAEDVGVYYCQNGHGFPRTFGGGTKLEIKGGGGT[here human IgG1 Fc with changes without letters]
heavy: EVQLVESGGGLVKPGGSLRLSCAASGFTFGLYTMSWVRQAPGKGLEWVATISSGGSNTYYPDSVKGRFTISRDNAKNSLYLQMNSLRAEDTAVYYCARYYRYDAWFAYWGQGTLVTVSSASTKGPSVFPLAPSSKSTSGGTAALGCLVKDYFPEPVTVSWNSGALTSGVHTFPAVLQSSGLYSLSSVVTVPSSSLGTQTYICNVNHKPSNTKVDKRVEPKSCDKTHTCPPCPAPELLGGPSVFLFPPKPKDTLMISRTPEVTCVVVDVSHEDPEVKFNWYVDGVEVHNAKTKPREEQYNSTYRVVSVLTVLHQDWLNGKEYKCKVSNKALPAPIEKTISKAKGQPREPQVCTLPPSREEMTKNQVSLSCAVKGFYPSDIAVEWESNGQPENNYKTTPPVLDSDGSFFLVSKLTVDKSRWQQGNVFSCSVMHEALHNHYTQKSLSLSPGK
light: EVVLTQSPATLSLSPGERATLSCRSSQNIVHSTGNTYLDWYQQKPGQSPRLLIYKVSNRFSGVPARFSGSGSGTDFTLTISSLEPEDFAVYYCFQGSHIPRTFGGGTKLEIKRTVAAPSVFIFPPSDEQLKSGTASVVCLLNNFYPREAKVQWKVDNALQSGNSQESVTEQDSKDSTYSLSSTLTLSKADYEKHKVYACEVTHQGLSSPVTKSFNRGEC
binding to human CD47 expressed on the surface of C6 cells (human CD47): bind
binding to human MDR1 expressed on the surface of C6 cells (human MDR1): bind

B4: KT14.B6H12hu scFv-B1.261.hu1: anti-MDR1 and anti-CD47 bispecific antibody in scFv-Fab-Fc format (protein)
scFv: EVQLVQSGAEVKKPGASVKVSCKASGFTFSGYGMSWVRQAPGQRLEWVATITSGGTYTYYPDSVKGRFTITRDNSASTLYMELSSLRSEDTAVYYCARSLAGNAMDYWGQGTMVTVSSGGGGSGGGGSGGGGSDIVMTQSPLSLPVTPGEPASISCRASQTISDYLHWYLQKPGQSPQLLIKFASQSISGIPDRFSGSGSGSDFTLKISRVEAEDVGVYYCQNGHGFPRTFGGGTKLEIKGGGGT[here human IgG1 Fc with changes without letters]
heavy: EVQLQESGPGLVKPSETLSLTCTVSGFSLTSYGVHWVRQPPGKGLEWLVVIWSDGSTTYNSALKSRLTISKDNSKNQVSLKLSSVTAADTAVYYCARHGRWLLQRGGAMDYWGQGTMVTVSSASTKGPSVFPLAPSSKSTSGGTAALGCLVKDYFPEPVTVSWNSGALTSGVHTFPAVLQSSGLYSLSSVVTVPSSSLGTQTYICNVNHKPSNTKVDKRVEPKSCDKTHTCPPCPAPELLGGPSVFLFPPKPKDTLMISRTPEVTCVVVDVSHEDPEVKFNWYVDGVEVHNAKTKPREEQYNSTYRVVSVLTVLHQDWLNGKEYKCKVSNKALPAPIEKTISKAKGQPREPQVCTLPPSREEMTKNQVSLSCAVKGFYPSDIAVEWESNGQPENNYKTTPPVLDSDGSFFLVSKLTVDKSRWQQGNVFSCSVMHEALHNHYTQKSLSLSPGK
light: DVQMTQSPSSLSASVGDRVTITCRASQNVGSYIAWYQQKPGKSPKALIYSASYRSSGVPSRFSGSGAGTDFTLTISSLQPEDFATYFCQQYNSYPLTFGGGTKLEIKRTVAAPSVFIFPPSDEQLKSGTASVVCLLNNFYPREAKVQWKVDNALQSGNSQESVTEQDSKDSTYSLSSTLTLSKADYEKHKVYACEVTHQGLSSPVTKSFNRGEC
binding to human CD47 expressed on the surface of C6 cells (human CD47): bind
binding to human MDR1 expressed on the surface of C6 cells (human MDR1): bind

Second part, led by results:

binding to human CD47 expressed on the surface of C6 cells (human CD47): bind
B1: KT14.5F9hu scFv-B1.28.hu13: anti-MDR1 and anti-CD47 bispecific antibody in scFv-Fab-Fc format (protein)
scFv: EVQLVESGGGLVQPGGSLRLSCAASGYTFTNYNMHWVRQAPGKGLEWMGTIYPGNDDTSYNQKFKDRVTISRDNSKNTLYLQMNSLRAEDTAVYYCARGGYRAMDYWGQGTLVTVSSGGGGSGGGGSGGGGSDIQMTQSPSSLSASVGDRVTITCRSSQSIVYSNGNTYLGWYQQKPGKSPKLLIYKVSNRFSGVPSRFSGSGSGTDFTLTISSLQPEDVATYYCFQGSHVPYTFGQGTKLEIKGGGGT[here human IgG1 Fc with changes without letters]
heavy: B2 heavy
light: B2 light
binding to human MDR1 expressed on the surface of C6 cells (human MDR1): bind

binding to human CD47 expressed on the surface of C6 cells (human CD47): bind
B3: KT14.5F9hu scFv-B1.261.hu1: anti-MDR1 and anti-CD47 bispecific antibody in scFv-Fab-Fc format (protein)
scFv: EVQLVESGGGLVQPGGSLRLSCAASGYTFTNYNMHWVRQAPGKGLEWMGTIYPGNDDTSYNQKFKDRVTISRDNSKNTLYLQMNSLRAEDTAVYYCARGGYRAMDYWGQGTLVTVSSGGGGSGGGGSGGGGSDIQMTQSPSSLSASVGDRVTITCRSSQSIVYSNGNTYLGWYQQKPGKSPKLLIYKVSNRFSGVPSRFSGSGSGTDFTLTISSLQPEDVATYYCFQGSHVPYTFGQGTKLEIKGGGGT[here human IgG1 Fc with changes without letters]
heavy: B4 heavy
light: B4 light
binding to human MDR1 expressed on the surface of C6 cells (human MDR1): bind

Reference: patent US20230203156A1, “ANTI-MDR1 ANTIBODIES AND USES THEREOF” (KENJOCKETY BIOTECHNOLOGY, INC., priority 2020, published 2023)
